Assay results from the supplement of paper PMC8728848.
Some of the results follow.

Experiments:
Assay in all cases: glycan array binding signal (z-score within array); higher = stronger binding
Conditions in all cases: glycan notation: IUPAC condensed, linker removed
Neu5Ac(a2-8)Neu5Ac = biological target: Neu5Ac(a2-8)Neu5Ac
How it was run: (§1)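 Negative Z-scores can be read as non-binding. The Z-score is calculated within each array and then averaged across arrays of one protein sequence at different concentrations or buffers and across linkers. Arrays, 3228 in all, were curated from the Consortium for Functional Glycomics database and kept only where the protein sequence was available.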

[1] = biological target: Neu5Ac(a2-8)Neu5Ac(a2-3)Gal(b1-3)GalNAc(b1-4)[Neu5Ac(a2-3)]Gal(b1-4)Glc
How it was run: as §1

[2] = biological target: Neu5Ac(a2-8)Neu5Ac(a2-3)Gal(b1-3)GalNAc(b1-4)[Neu5Ac(a2-8)Neu5Ac(a2-3)]Gal(b1-4)Glc
How it was run: as §1

[3] = biological target: Neu5Ac(a2-8)Neu5Ac(a2-3)Gal(b1-4)Glc
How it was run: as §1

[4] = biological target: Neu5Ac(a2-8)Neu5Ac(a2-3)Gal(b1-4)GlcNAc
How it was run: as §1

[5] = biological target: Neu5Ac(a2-8)Neu5Ac(a2-3)[Gal(b1-3)GalNAc(b1-4)]Gal(b1-4)Glc
How it was run: as §1

[6] = biological target: Neu5Ac(a2-8)Neu5Ac(a2-3)[GalNAc(b1-4)]Gal(b1-4)Glc
How it was run: as §1

[7] = biological target: Neu5Ac(a2-8)Neu5Ac(a2-8)Neu5Ac
How it was run: as §1

[8] = biological target: Neu5Ac(a2-8)Neu5Ac(a2-8)Neu5Ac(a2-3)Gal(b1-4)Glc
How it was run: as §1

[9] = biological target: Neu5Ac(a2-8)Neu5Ac(a2-8)Neu5Ac(a2-3)[Gal(b1-3)GalNAc(b1-4)]Gal(b1-4)Glc
How it was run: as §1

[10] = biological target: Neu5Ac(a2-8)Neu5Ac(a2-8)Neu5Ac(a2-3)[GalNAc(b1-4)]Gal(b1-4)Glc
How it was run: as §1

[11] = biological target: Neu5Ac(a2-8)Neu5Ac(a2-8)Neu5Ac(a2-8)Neu5Ac(a2-3)[GalNAc(b1-4)]Gal(b1-4)Glc
How it was run: as §1

[12] = biological target: Neu5Ac(a2-8)Neu5Gc(a2-3)Gal(b1-4)GlcNAc
How it was run: as §1

[13] = biological target: Neu5Ac(b2-6)Gal(b1-4)GlcNAc
How it was run: as §1

Neu5Ac(b2-6)GalNAc = biological target: Neu5Ac(b2-6)GalNAc
How it was run: as §1

[14] = biological target: Neu5Ac9Ac(a2-3)Gal(b1-3)GlcNAc
How it was run: as §1

[15] = biological target: Neu5Ac9Ac(a2-3)Gal(b1-4)GlcNAc
How it was run: as §1

[16] = biological target: Neu5Ac9Ac(a2-6)Gal(b1-4)GlcNAc
How it was run: as §1

[17] = biological target: Neu5Gc(a2-3)Gal(b1-3)GlcNAc
How it was run: as §1

[18] = biological target: Neu5Gc(a2-3)Gal(b1-3)[Fuc(a1-4)]GlcNAc
How it was run: as §1

Neu5Gc(a2-3)Gal(b1-4)Glc = biological target: Neu5Gc(a2-3)Gal(b1-4)Glc
How it was run: as §1

[19] = biological target: Neu5Gc(a2-3)Gal(b1-4)GlcNAc
How it was run: as §1

[20] = biological target: Neu5Gc(a2-3)Gal(b1-4)GlcNAc(b1-3)Gal(b1-4)GlcNAc(b1-2)Man(a1-3)[Neu5Gc(a2-3)Gal(b1-4)GlcNAc(b1-3)Gal(b1-4)GlcNAc(b1-2)Man(a1-6)]Man(b1-4)GlcNAc(b1-4)GlcNAc
How it was run: as §1

[21] = biological target: Neu5Gc(a2-3)Gal(b1-4)[Fuc(a1-3)]GlcNAc
How it was run: as §1

[22] = biological target: Neu5Gc(a2-6)Gal(b1-4)GlcNAc
How it was run: as §1

Neu5Gc(a2-6)GalNAc = biological target: Neu5Gc(a2-6)GalNAc
How it was run: as §1

[23] = biological target: Neu5Gc(a2-8)Neu5Ac(a2-3)Gal(b1-4)GlcNAc
How it was run: as §1

[24] = biological target: Neu5Gc(a2-8)Neu5Gc(a2-3)Gal(b1-4)GlcNAc
How it was run: as §1

[25] = biological target: Neu5Gc(a2-8)Neu5Gc(a2-3)Gal(b1-4)GlcNAc(b1-3)Gal(b1-4)GlcNAc
How it was run: as §1

[26] = biological target: Neu5Gc(a2-8)Neu5Gc(a2-6)Gal(b1-4)GlcNAc
How it was run: as §1

[27] = biological target: Neu5Gc(b2-6)Gal(b1-4)GlcNAc
How it was run: as §1

B1: GS7807P-bth-537-23-537 (Bacteroides thetaiotaomicron) (protein)
chain: NYENINSNPYEAPDLSADGYALGSAMNNLAGCVVSPDVNTAQFTDCLLGGPLGGYFADSNAGFTETISNFNPKDDWSRVFLKSDKIIPTLYSNLTQVKLVSQNTNDPVPYAIAQVIKVAAMHRVTDAFGPIPYSQIGANGEIATPYDSQEVTYNTFFDELNAAIATLNENSNEQLVPTADYIYKGDVKKWIRFANSLKLRLAIRIAYANPVKAQQMAEEAVNPANGGVIESNADNATWNYFETSQNPIYVATRYNQVQTSDHGGVPCLTGGDTHAAADIICYMNGYKDNRREKFFTKSEWAGQDYVGMRRGIVIPELKTTGHKYSGVNIAPTSPLYWMNAAEVAFLRAEGQAVFNFSMGGTAESFYNQGIRLSFEQWGADGVEDYLKDDVNKPTAYTDPAGTNTYQNALSNITIKWNDSADKEEKQERIIVQKWIANWQLGNEAWADFRRTGYPKLIPVKENKSGGVVDSEKGARRMPYPLDEFVSNKANVEYAIANYLHGADNMATDVWWASKK
- glycan array binding signal (z-score) (Neu5Ac(a2-8)Neu5Ac): -0.329
- glycan array binding signal (z-score) [1]: -0.358
- glycan array binding signal (z-score) [2]: 0.021
- glycan array binding signal (z-score) [3]: -0.374
- glycan array binding signal (z-score) [4]: -0.38
- glycan array binding signal (z-score) [5]: -0.023
- glycan array binding signal (z-score) [6]: 1.89
- glycan array binding signal (z-score) [7]: -0.358
- glycan array binding signal (z-score) [8]: -0.299
- glycan array binding signal (z-score) [9]: -0.382
- glycan array binding signal (z-score) [10]: 0.411
- glycan array binding signal (z-score) [11]: -0.311
- glycan array binding signal (z-score) [12]: -0.362
- glycan array binding signal (z-score) [13]: 0.513
- glycan array binding signal (z-score) (Neu5Ac(b2-6)GalNAc): -0.332
- glycan array binding signal (z-score) [14]: -0.266
- glycan array binding signal (z-score) [15]: -0.382
- glycan array binding signal (z-score) [16]: -0.397
- glycan array binding signal (z-score) [17]: -0.386
- glycan array binding signal (z-score) [18]: -0.379
- glycan array binding signal (z-score) (Neu5Gc(a2-3)Gal(b1-4)Glc): -0.321
- glycan array binding signal (z-score) [19]: -0.371
- glycan array binding signal (z-score) [20]: -0.361
- glycan array binding signal (z-score) [21]: -0.301
- glycan array binding signal (z-score) [22]: -0.396
- glycan array binding signal (z-score) (Neu5Gc(a2-6)GalNAc): -0.023
- glycan array binding signal (z-score) [23]: -0.376
- glycan array binding signal (z-score) [24]: -0.353
- glycan array binding signal (z-score) [25]: -0.358
- glycan array binding signal (z-score) [26]: -0.365
- glycan array binding signal (z-score) [27]: 0.897
